The structures appear in SMILES notation. Among all 48,000 compounds or so, about 550 (1.1%) were called active. Another 4% or so got no clear call; they are omitted. No stated cut-off is given here; in the data, active means potency below about 15 µM; inconclusive means mostly about 16 µM to 33 µM; inactive means weaker than that. This is one part of the list.
Potency means the concentration at half of the fitted maximal effect.

Sequence of UniProt P04062 (P04062 whole entry, looked up): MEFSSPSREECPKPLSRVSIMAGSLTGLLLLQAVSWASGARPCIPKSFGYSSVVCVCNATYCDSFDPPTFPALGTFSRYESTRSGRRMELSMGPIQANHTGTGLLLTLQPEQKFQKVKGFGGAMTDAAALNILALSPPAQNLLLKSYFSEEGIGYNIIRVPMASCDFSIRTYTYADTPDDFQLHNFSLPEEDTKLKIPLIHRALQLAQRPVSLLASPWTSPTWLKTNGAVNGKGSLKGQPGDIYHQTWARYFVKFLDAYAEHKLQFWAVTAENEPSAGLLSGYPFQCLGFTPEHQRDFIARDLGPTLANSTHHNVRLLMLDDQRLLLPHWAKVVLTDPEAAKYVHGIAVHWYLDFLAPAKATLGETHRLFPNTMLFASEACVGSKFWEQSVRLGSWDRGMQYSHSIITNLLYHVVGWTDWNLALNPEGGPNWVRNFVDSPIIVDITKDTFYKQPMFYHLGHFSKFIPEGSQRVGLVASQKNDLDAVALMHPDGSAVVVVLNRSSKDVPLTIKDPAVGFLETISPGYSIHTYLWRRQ

The assay has as its target Lysosomal acid glucosylceramidase (Homo sapiens) (UniProt P04062). Nature of the assay: Glucocerebrosidase.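 Further: the screen sought inhibitors.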 As to conditions: purified enzyme, resorufin glucoside fluorescence (screen aimed at inhibitors), 20 min. The method in brief:
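Wild-type enzyme at 0.2 nM final in 50mM citric acid/KH2PO4, 10mM sodium taurocholate, 0.01% tween-20, pH 5.9, with resorufin beta-D-glucopyranoside at 30 uM final. Compounds titrated, 20 min at RT, red fluorescence read; AC50 from titration.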
Turning to `Cc1ccc(C)n1-c1cccc(C(=O)O)c1`, the Potency is inactive: > 76.9 µM. The same measure for `c1ccc(-c2nc3nonc3nc2-c2ccccc2)cc1`: “inactive”; for `Cc1ccc(-c2nn(-c3ccccc3)c3[nH]c(=O)c(CNCCN(C)C)cc23)cc1`: inactive: > 76.9 µM. As to `Cn1nc(C(=O)NCc2ccc(F)cc2)c2ccccc2c1=O`, the Potency was inactive: > 76.9 µM. As for `O=C(Nc1ccc2oc(-c3ccccc3)nc2c1)c1cccnc1`, the Potency is inactive: > 76.9 µM. Consider `COc1cc(NC(=O)CN2C(=O)NC(C)(CC(C)C)C2=O)cc(OC)c1` (centres undefined), for which the Potency was inactive: > 76.9 µM.

As for `COc1cc2c(cc1OC)/C(=C/C(=O)N1CCOCC1)NC(C)(C)C2`, the Potency was inactive: > 76.9 µM. The same measure for `Cc1nc2nc(SCC(=O)N3CCOCC3)nn2c(C)c1Cc1ccccc1`: inactive: > 76.9 µM; for `CN1C(=O)NC(c2ccc(O)cc2)C(C(=O)c2cccs2)C1(O)C(F)(F)F` (centres undefined): active: 15 µM; for `Cn1cccc1-c1nc2ccc(NC(=O)c3cccs3)cc2[nH]1`: “inactive”. For the compound `CCCC(=O)C1=C(c2ccccc2)C(C#N)(C#N)C(C#N)=C1N`, the Potency entry is “inactive”. In the case of `CCc1cc(=O)oc2cc(OCC(=O)N3CCc4ccccc43)ccc12`, the Potency was inactive: > 76.9 µM. For the compound `O=C1c2ccccc2C(O)(Cc2ccccc2)N1Cc1ccco1` (centres undefined), the Potency is inactive: > 76.9 µM. Then `Cc1cc(NS(=O)(=O)c2ccc(NC(=O)Nc3cccc(Cl)c3)cc2)no1`, with inactive: > 76.9 µM. With `CN(C)C(=O)CSc1nnc(CCNC(=O)OC(C)(C)C)o1`, the Potency was inactive: > 76.9 µM. Turning to `CC1CN(c2ccccc2)C(=O)CS1` (centres undefined), the Potency is inactive: > 76.9 µM. The same measure for `COc1ccccc1CN(CC(=O)NCc1ccco1)C(=O)CNS(=O)(=O)c1ccc(C)cc1`: inactive: > 76.9 µM. The same measure for `Cc1ccc2c3c(c(SCC(=O)Nc4nonc4C)nc2c1)CCCC3`: inactive: > 76.9 µM; for `CSc1nnc(-c2nnc(SC)n2-c2ccccc2)n1-c1ccccc1`: inactive: > 76.9 µM; for `Fc1ccc(Cn2nnnc2CN2CCN(C3CCCC3)CC2)cc1`: inactive: > 76.9 µM. Take `CCCCS(=O)(=O)Nc1ccc2ncn(C)c(=O)c2c1`: the Potency is inactive: > 76.9 µM. Regarding `N#Cc1nc(-c2ccc(Cl)cc2)oc1NCc1ccco1`, the Potency was inactive: > 76.9 µM. With `Cc1ccc(S(=O)(=O)Nc2cccc3ncccc23)s1`, the Potency is inactive: > 76.9 µM.

On to `CCOc1ccccc1-n1c(SCC(N)=O)nnc1-c1ccco1`, for which the Potency was inactive: > 76.9 µM. Then `CC(=O)c1cccc(NS(=O)(=O)N2CCCCC2)c1`, with inactive: > 76.9 µM; and `COc1ccc(-c2nc(C#N)c(NC(C)C)o2)cc1`, with inactive: > 76.9 µM; and `O=C(O)c1ccc(S(=O)(=O)Cc2ccccc2)cc1`, with inactive: > 76.9 µM.

In the case of `CCCCn1c(=O)n(C)c(=O)c2c(C(F)(F)F)cc(-c3ccncc3)nc21`, the Potency is inactive: > 76.9 µM. The same measure for `CCCn1c(SCC(=O)N2CCc3ccccc32)nnc1-c1ccco1`: inactive: > 76.9 µM; for `CCc1cc2c(=O)c(-c3ccc4c(c3)OCCO4)coc2cc1OC(=O)c1ccco1`: inactive: > 76.9 µM. Then `CCn1ncc(Br)c1C(=O)N(C)C12CC3CC(CC(C3)C1)C2`, with inactive: > 76.9 µM. As for `COc1ccc(-c2cc(=O)[nH]c(NCc3ccccc3)n2)cc1`, the Potency is inactive: > 76.9 µM.

With `O=C(c1ccc(N2CCOCC2)nc1)N1CCCCC1`, the Potency was inactive: > 76.9 µM.

Turning to `COc1ccccc1OCCCn1cc(C#N)c2ccccc21`, the Potency was inactive: > 76.9 µM. `CCN(CCCNC(=O)CCNC(=O)Cn1cnc2ccccc2c1=O)c1ccccc1`: the Potency is inactive: > 76.9 µM. As to `CCc1nnc(NC(=O)CSc2nnnn2-c2cccc(C(=O)OC)c2)s1`, the Potency was inactive: > 76.9 µM. With `Cc1ccccc1-n1c(=O)cc(NCc2ccc3c(c2)OCO3)[nH]c1=O`, the Potency was inactive: > 76.9 µM.

As for `COc1ccc(CNC(=O)CN(C(=O)c2cc3sccc3n2C)C2CCCC2)cc1`, the Potency is inactive: > 76.9 µM. Then `CCOC(=O)C1CCN(C(c2cc3cc(C)cc(C)c3[nH]c2=O)c2nnnn2C2CCCCC2)CC1` (centres undefined), with inactive: > 76.9 µM.

On to `Cc1cc(NC(=O)CCCN2C(=O)c3cccnc3C2=O)no1`, for which the Potency was inactive: > 76.9 µM. `CC1=Nn2c(nnc2-c2ccc(F)cc2)SC1`: the Potency was inactive: > 76.9 µM. `COCCNS(=O)(=O)c1cc(-c2nn(C)c(=O)c3ccccc23)ccc1C`: the Potency is inactive: > 76.9 µM. Then `CC(C)(C)c1csc(NC(=O)Cn2cnc3ccccc3c2=O)n1`, with inactive: > 76.9 µM. Turning to `COc1cc2c(C(=O)NCc3ccc(C)o3)cn(CC(C)C)c(=O)c2cc1OC`, the Potency is inactive: > 76.9 µM.

Take `CCCN1Cc2cccc(C(=O)NCc3cccs3)c2C1=O`: the Potency is inactive: > 76.9 µM. Turning to `Clc1cccc(-c2nc(-c3ccccn3)no2)c1`, the Potency is inactive: > 76.9 µM.

As for `CCn1c(SCC(=O)Nc2nccs2)nnc1-c1ccncc1`, the Potency was inactive: > 76.9 µM. For the compound `O=C(NCC1CCCO1)c1coc2nc3ccccc3nc12` (centres undefined), the Potency is inactive: > 76.9 µM. `CCOC(=O)N1CCN(C(=O)Cn2c(=O)sc3ccccc32)CC1`: the Potency is inactive: > 76.9 µM. Take `O=C(Nc1ccon1)c1cccc(Cl)c1`: the Potency was inactive: > 76.9 µM. Consider `COc1ccc2c(c1)CCc1c(C(=O)Nc3c(C)n(C)n(-c4ccccc4)c3=O)noc1-2`, for which the Potency is inactive: > 76.9 µM. With `Cn1c(=O)n(CC(N)=O)c2ccccc21`, the Potency was inactive: > 76.9 µM. Then `CC1(C)CC(=O)C2=C(C1)OC(N)=C(C#N)C21CCN(C(=O)OCc2ccccc2)CC1`, with “inactive”; and `CC12CCC(=O)N1C(C(=O)OCC(=O)Nc1sccc1C#N)CS2` (centres undefined), with inactive: > 76.9 µM; and `O=C(O)Cn1cc(C(=O)C2CC2)c2ccccc21`, with inactive: > 76.9 µM. As for `CCOC(=O)c1ccccc1NC(=O)Cn1cnc2c(oc3ccccc32)c1=O`, the Potency is inactive: > 76.9 µM. The same measure for `CCOc1ccc(N(CCC#N)S(=O)(=O)c2ccc(OC)cc2)cc1`: inactive: > 76.9 µM; for `CCOC(=O)c1ccc2ncc(C(=O)OCC)c(NCc3ccco3)c2c1`: inactive: > 76.9 µM.

Regarding `Cc1cc(C(C)(C)C)cc(S(=O)(=O)NCC(=O)O)c1C`, the Potency is inactive: > 76.9 µM.

The record behind these values is PubChem BioAssay AID360 (National Center for Advancing Translational Sciences (NCATS), 2006).
